Source: PMC4980666, “N-acylhydrazone inhibitors of influenza virus PA endonuclease with versatile metal binding modes” (Scientific Reports, 2016)
Several values for one entry are separate records, joined by “and”; a condition that tells them apart may be missing. Equal entries are not always repeated.

Each molecule was assayed against recombinant PA-Nter (residues 1–217 from the PA protein of influenza virus strain A/X-31) (Influenza A virus, UniProt P03433) (assay: Plasmid-based endonuclease assay with recombinant PA-Nter). Details: Enzyme assay with PA-Nter IC50, ssDNA plasmid substrate, Mn2+-containing buffer, 2 hr incubation.
Assay type: biochemical

O=C(N/N=C/c1cc(O)ccc1O)c1cc(O)c(O)c(O)c1 [Compound 15] was tested, and the IC50 was 9 µM and 8.9 µM.
O=C(N/N=C/c1cccc(O)c1O)c1ccccc1 [Compound 5] was tested, and the IC50 was 84 µM and 67 µM.
With O=C(N/N=C/c1cc(O)c(O)c(O)c1)c1cc(O)c(O)c(O)c1 [Compound 23] the IC50 was 7 µM and 8.7 µM.
O=C(O)c1ccc(-c2cccc(/C=N/NC(=O)c3cc(O)c(O)c(O)c3)c2)cc1 [Compound 26] was tested, and the IC50 was ~40 µM and 30 µM.
For O=C(N/N=C/c1ccc[nH]1)c1cc(O)c(O)c(O)c1 [Compound 25], the IC50 was ~40 µM and 40 µM.
With NNC(=O)c1cc(O)c(O)c(O)c1 [Compound 28, 3,4,5-trihydroxybenzohydrazide] the IC50 was ~40 µM and 40 µM.
With O=C(N/N=C/c1ccc(O)cc1O)c1cc(O)c(O)c(O)c1 [Compound 17] the IC50 was ≥ 370 µM and 482 µM.

Point of comparison: O=C(N/N=C/c1cc(O)c(O)cc1O)c1ccccc1O [Compound 9], IC50 34 µM. Against it:
- COc1cccc(/C=N/NC(N)=O)c1O [Compound 2] — higher, > 500 µM
- COc1cccc(/C=N/NC(=O)c2ccccc2O)c1O [Compound 8] — higher, > 500 µM
- O=C(N/N=C/c1cc(O)c(O)cc1O)c1cc(O)c(O)c(O)c1 [Compound 21] — 2.6-fold lower, 13 µM
- NC(=O)N/N=C/c1cc(O)c(O)c(O)c1 [Compound 27] — within 1.5-fold, 36 µM
- O=C(N/N=C/c1cc(O)c(O)c(O)c1)c1ccccc1O [Compound 11] — within 1.5-fold, 45 µM
- CCCCCCCC(=O)N/N=C/c1cccc(OC)c1O [Compound 4] — higher, > 500 µM
- O=C(N/N=C/c1cccc(O)c1O)c1ccccc1O [Compound 7] — 1.6-fold higher, 54 µM
- O=C(N/N=C/c1c(O)cc(O)cc1O)c1ccccc1O [Compound 10] — 2-fold higher, 68 µM
- O=C(N/N=C/c1cccc(O)c1O)c1cc(O)c(O)c(O)c1 [Compound 18] — 2.4-fold higher, 83 µM
- CCCCCCCC(=O)N/N=C/c1cccc(O)c1O [Compound 3] — higher, > 500 µM
- COc1cccc(/C=N/NC(=O)c2ccccc2)c1O [Compound 6] — higher, > 500 µM
- O=C(N/N=C/c1ccccc1)c1cc(O)c(O)c(O)c1 [Compound 13] — 2-fold higher, 69 µM
- COc1cccc(/C=N/NC(=O)c2cc(O)c(O)c(O)c2)c1O [Compound 19] — higher, > 500 µM
- O=C(N/N=C/c1ccc(O)c(O)c1O)c1cc(O)c(O)c(O)c1 [Compound 20] — 1.9-fold lower, 18 µM
- O=C(N/N=C/c1c(O)cc(O)cc1O)c1cc(O)c(O)c(O)c1 [Compound 22] — 2.2-fold higher, 75 µM
- COc1ccc(O)c(/C=N/NC(=O)c2cc(O)c(O)c(O)c2)c1 [Compound 16] — 13-fold higher, 454 µM
- NC(=O)N/N=C/c1cccc(O)c1O [Compound 1, N’-(2,3-dihydroxybenzylidene)-semicarbazide] — within 1.5-fold, 24 µM
- O=C(N/N=C/c1ccccn1)c1cc(O)c(O)c(O)c1 [Compound 24] — 3.9-fold higher, 131 µM
- O=C(N/N=C/c1ccccc1O)c1cc(O)c(O)c(O)c1 [Compound 14] — higher, > 500 µM
- COc1cc(C(=O)N/N=C/c2cc(O)ccc2O)cc(OC)c1OC [Compound 12] — higher, > 500 µM
